Some of the results follow. Further columns of the screen follow, without active or inactive calls.
Tests used:
Assay in all cases: Primary Screen for Target Class Profiling of Small Molecule Inhibitors of Methyltransferases
[1] = biological target: Glycine N-methyltransferase (Homo sapiens) (UniProt Q14749); conditions: purified enzyme, MTase-Glo SAH luminescence; measured here: GNMT inhibition; at 40 µM; stronger effect = lower value
How it was run: (§1)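 Each enzyme was assayed with SAM and its substrate. SAH formation detected by MTase-Glo luminescence; single-point 40 uM screen[…].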

[2] = biological target: Guanidinoacetate N-methyltransferase (Homo sapiens) (UniProt Q14353); conditions: purified enzyme, MTase-Glo SAH luminescence; measured here: GAMT inhibition; at 40 µM; stronger effect = lower value
How it was run: as §1

[3] = biological target: Histamine N-methyltransferase (Homo sapiens) (UniProt P50135); conditions: purified enzyme, MTase-Glo SAH luminescence; measured here: HNMT inhibition; at 40 µM; stronger effect = lower value
How it was run: as §1

[4] = biological target: Nicotinamide N-methyltransferase (Homo sapiens) (UniProt P40261); conditions: purified enzyme, MTase-Glo SAH luminescence; measured here: NNMT inhibition; at 40 µM; stronger effect = lower value
How it was run: as §1

[5] = biological target: Phenylethanolamine N-methyltransferase (Homo sapiens) (UniProt P11086); conditions: purified enzyme, MTase-Glo SAH luminescence; measured here: PNMT inhibition; at 40 µM; stronger effect = lower value
How it was run: as §1
% is scaled to controls: 0 for no effect and ±100 for the full control effect.

SMILES	activity change, negative = inhibition [1] [%]	activity change, negative = inhibition [2] [%]	activity change, negative = inhibition [3] [%]	activity change, negative = inhibition [4] [%]	activity change, negative = inhibition [5] [%]
Cc1ccc(Nc2ccn3c(=O)n(CC(=O)Nc4cc(F)cc(F)c4)nc3n2)cc1	-1.17	2.96	-8.95	-20.1	-4.19
COCC(=O)N1CC(C(=O)N2CCCCC2)[C@H](c2ccncc2)C1 (stereo not given in full)	-2.42	-0.522	-0.913	-1.77	1.59
O=C(c1ccccc1)N1CCCC2(CC(c3ccccc3)=NO2)C1 (stereo not given)	-2.48	-0.211	1.41	-1.45	2.8
COc1ccc(C2(C#N)CCC(C(=O)O)CC2)cc1OC1CCCC1 (stereo not given)	6.14	4.76	6.79	-7.74	4.16
CC1CCCCC1NC(=O)C1(C)Cn2c(cc3sccc32)C(=O)N1c1ccc(Cl)cc1 (stereo not given)	-1.98	0	-1.32	-7.06	-1.46
CCC(C(=O)NCc1ccc2c(c1)OCO2)n1ccc2cc(S(=O)(=O)N3CCCCC3)ccc21 (stereo not given)	7.54	0.288	8.14	6.41	6.64
CC[C@H]1OC(=O)[C@H](C)[C@@H](O[C@H]2C[C@@](C)(OC)[C@@H](O)[C@H](C)O2)[C@H](C)[C@@H](O[C@@H]2O[C@H](C)C[C@H](N(C)C)[C@H]2O)[C@](C)(O)C[C@@H](C)C(=O)[C@H](C)[C@H]2OC(=O)O[C@@]21C	-1.92	0.576	9.32	-12.2	2.82
Cc1cccc(-c2n[nH]n3c2nc(=O)c2ccc(C(=O)N4CCN(c5ccccc5F)CC4)cc23)c1	-16.5	0	1.1	-5.59	-3.21
CC(C)CCn1c(=O)c2ccccc2n2c(=O)n(Cc3cccc(F)c3)nc12	-1.84	1.12	6.44	-12.1	-0.89
CC1CCC(NC(=O)C2(C)Cn3c(nc4ccccc43)C(=O)N2CCc2ccc(Cl)cc2)CC1 (stereo not given)	-0.474	3.29	-3.04	-1.26	-6.67
CN1CCC(Oc2ncccc2NC(=O)c2ccncc2)C1 (stereo not given)	-36.6	-17.4	-35.8	-6.03	-25.1
CC(=O)Nc1c2n(c3ccccc13)CC(C)(C(=O)NC1CCCC1)N(Cc1ccccc1F)C2=O (stereo not given)	-1.17	1.27	2.26	-2.5	1.94
O=C(Cn1ccc2cc(S(=O)(=O)N3CCCCC3)ccc21)NCc1ccco1	2.66	5.09	-1.16	-2.36	-0.566
O=C(c1cnccn1)N1CCC(Oc2cccnc2)C1 (stereo not given)	82.3	-0.351	0.414	-0.823	2.3
CC1CCC2(C)C(CC(O)C(O)C23CO3)C1(C)CCC1=CC(=O)OC1O (stereo not given)	-17.5	-2.74	9	-14.9	-7.27
FC(F)(F)c1ccc(O[C@H]2COCCN(Cc3cccnc3)C2)nc1	0.301	2.52	2.76	-2.48	-30.8
COc1ccc(-c2nc(-c3ccccc3)nc3c2CN([S+](=O)([O-])c2cccs2)CC3)cc1	-6.34	-9.41	-3.16	-19.5	-12.7
COc1cc(C(=O)OC[C@H]2O[C@@H](OC(C)(C)C(=O)O)[C@H](O)[C@@H](O)[C@@H]2O)cc(OC)c1O	3.71	6.17	9.66	-6.29	8.06
CCC(C)NC(=O)c1ccc2c(=O)n(C)c3nnc(SCC(=O)NCc4ccccc4)n3c2c1 (stereo not given)	1.95	0	-0.878	-5.27	1.71
Cc1cc(C[C@@H]2COC[C@@H]2NC(=O)CCc2nc(-c3ccco3)no2)on1	-5.74	2.69	0.97	-1.67	-1.55
COc1cc(-c2nccc3c(=O)cc(N4CCOCC4)oc23)ccn1	0.203	-1.5	1.27	-5.39	9.87
CC(C)OC(=O)C(C)Oc1ccc2c(=O)c(Oc3ccccc3Br)c(C(F)(F)F)oc2c1 (stereo not given)	-2.91	3.68	-1.74	-1.79	-4.05
CCN1CCC(N2CC(Oc3cccc(C(=O)NCC4CC4)c3)C2)CC1	0.199	-3.13	-6.57	-5.59	0.072
COc1cc(C(=O)NC(=S)Nc2cccc(NC(=O)c3ccccc3)c2)cc(OC)c1OC	-4.15	1.59	9.65	-7.19	2.8
CC(=O)Nc1ccc(NC(=O)c2cccc(CN3CCCC(C#N)C3)c2)cc1 (stereo not given)	-5.77	-1.62	-0.488	-0.972	-2.18
Cc1oc(C(O)c2ccccc2)nc1C(=O)Nc1ccc(C(=O)Nc2ccccc2)cc1 (stereo not given)	-12.8	-10.3	-5.77	-16.2	4
CC1(C)CC2C3=CCC4C5(C)CCC(OC6OC(C(=O)O)C(O)C(O)C6OC6OC(CO)C(O)C(O)C6OC6OC(CO)C(O)C(O)C6O)C(C)(CO)C5CCC4(C)C3(C)CCC2(C)C(OC2OCC(O)C(OC3OC(CO)C(O)C(O)C3O)C2O)C1O (stereo not given)	2.67	0.177	7.35	-12.5	-2.31
CCCCS(=O)(=O)N[C@@H]1CN(Cc2ccncc2)C[C@H]1CN(C)C	-6.03	-8.08	-9.75	-5.63	-9.59
CN1C(=O)c2cc(C(=O)N3CCN(c4ccccc4)CC3)nn2CC1(C)C(=O)NC1CCCCC1 (stereo not given)	-5.63	-1.67	-2.76	-7.67	-7.18

From PubChem BioAssay AID1745853 (National Center for Advancing Translational Sciences (NCATS), 2022)
